Laboratory results reported in article PMC4336329 (PLoS ONE, 2015).
Hit rate of the full screen: of about 310,000 compounds, about 2,200 (0.71%) showed an effect of 50% or more. The effect is printed as a negative number. This is one part of the list.

molecular target: human ether-à-go-go-related gene (hERG) potassium channel (human, UniProt Q12809); assay: primary screen, population patch clamp on CHO cells stably expressing hERG
Sequence (Q12809 whole entry, looked up): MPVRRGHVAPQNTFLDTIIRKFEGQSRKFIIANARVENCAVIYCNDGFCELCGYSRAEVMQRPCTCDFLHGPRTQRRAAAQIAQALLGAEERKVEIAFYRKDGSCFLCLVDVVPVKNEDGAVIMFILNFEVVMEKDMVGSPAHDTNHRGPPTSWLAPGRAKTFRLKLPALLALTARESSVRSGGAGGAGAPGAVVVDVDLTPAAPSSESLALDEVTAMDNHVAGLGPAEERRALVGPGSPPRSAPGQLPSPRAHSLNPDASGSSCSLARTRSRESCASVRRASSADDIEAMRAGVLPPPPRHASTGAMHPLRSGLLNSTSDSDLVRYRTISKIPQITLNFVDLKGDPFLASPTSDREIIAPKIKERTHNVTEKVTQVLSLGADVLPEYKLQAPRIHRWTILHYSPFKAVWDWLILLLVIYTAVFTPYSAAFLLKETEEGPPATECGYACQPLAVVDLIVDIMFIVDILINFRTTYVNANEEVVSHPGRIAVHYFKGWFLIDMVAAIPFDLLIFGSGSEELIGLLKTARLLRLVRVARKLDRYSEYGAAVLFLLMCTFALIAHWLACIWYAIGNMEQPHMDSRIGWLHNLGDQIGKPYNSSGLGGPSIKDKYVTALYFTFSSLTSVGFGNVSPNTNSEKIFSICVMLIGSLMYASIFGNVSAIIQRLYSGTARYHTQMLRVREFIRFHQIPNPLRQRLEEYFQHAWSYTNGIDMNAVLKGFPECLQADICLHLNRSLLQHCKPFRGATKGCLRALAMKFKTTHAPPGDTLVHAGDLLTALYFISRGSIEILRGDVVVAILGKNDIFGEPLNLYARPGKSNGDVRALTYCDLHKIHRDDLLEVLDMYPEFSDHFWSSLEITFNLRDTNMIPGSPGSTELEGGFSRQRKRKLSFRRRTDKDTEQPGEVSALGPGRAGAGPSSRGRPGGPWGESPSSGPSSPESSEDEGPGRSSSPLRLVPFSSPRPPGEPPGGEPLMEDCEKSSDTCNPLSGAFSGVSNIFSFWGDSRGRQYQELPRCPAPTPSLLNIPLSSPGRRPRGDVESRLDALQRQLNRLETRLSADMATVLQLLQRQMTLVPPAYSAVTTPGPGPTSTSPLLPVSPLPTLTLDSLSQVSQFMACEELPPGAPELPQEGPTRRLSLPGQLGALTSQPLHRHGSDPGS

For `CCNC(=O)NC(=O)C(C)Sc1nc2ccccc2c(=O)n1-c1cccnc1` (stereo not drawn), which “hERG current change (%, negative = inhibition) at 1uM” value is on record?
The value was 16.1%.

For `COCCOC1CCN(C(=O)C2CCC(=O)N(Cc3cccc(F)c3)C2)CC1` (stereo not drawn), which “hERG current change (%, negative = inhibition) at 1uM” value is on record?
The value was 14.2%.

With `CCCc1nc2ccccc2c(=O)n1/N=C/c1c(C)[nH]n(-c2ccc(C)cc2)c1=O` as the molecule, how does the “hERG current change (%, negative = inhibition) at 1uM” value read?
Its value is 0.959%.

For `O=C(Nc1nc(=S)ss1)c1ccc(Cl)cc1Cl`, which “hERG current change (%, negative = inhibition) at 1uM” value is on record?
The value was 9.74%.

Which “hERG current change (%, negative = inhibition) at 1uM” value does the source give for `Cc1ccc(C)c(Cn2nnc3c(=O)[nH]c(C4CCCN(C(=O)c5cccs5)C4)nc32)c1` (stereo not drawn) here?
The value was 11.1%.

Which “hERG current change (%, negative = inhibition) at 1uM” value does the source give for `CS(=O)(=O)NCc1ccc(C(=O)O)cc1` here?
Its value is 19.6%.

How did the “hERG current change (%, negative = inhibition) at 1uM” value turn out when `COC(=O)N/N=C1\CCCc2c(C)cc(C)cc21` was run?
The value was 5.03%.

How did the “hERG current change (%, negative = inhibition) at 1uM” value turn out when `O=C([O-])CSc1cccc2cccnc12.[Na+]` was run?
Its value is 6.21%.

With `Cl.c1ccc(CSc2nnc([C@@H]3CCCN3)o2)cc1` as the molecule, how does the “hERG current change (%, negative = inhibition) at 1uM” value read?
The value was 1.25%.

For `FC(F)(F)c1ccc(NC(=S)NC2CCCCC2)cc1`, which “hERG current change (%, negative = inhibition) at 1uM” value is on record?
The value was 2.6%.

`O=C(COC(=O)c1ccccc1S(=O)(=O)N1CCCCC1)NCC(F)(F)F` was tested. Which “hERG current change (%, negative = inhibition) at 1uM” value did it give?
The value was -8.44%.

For `CCCC[C@@H]1CNC(=O)C(=O)N1CC(C)(C)C`, which “hERG current change (%, negative = inhibition) at 1uM” value is on record?
Its value is 9.57%.

For `COC(=O)CC1C(=O)NCCN1C(=O)Nc1ccc(Cl)cc1` (stereo not drawn), which “hERG current change (%, negative = inhibition) at 1uM” value is on record?
The value was 15.8%.

How did the “hERG current change (%, negative = inhibition) at 1uM” value turn out when `O=S(=O)(NCCOc1cccc2cccnc12)c1ccc(F)cc1` was run?
The value was 10.7%.

`CCOC(=O)c1ccc(S(=O)(=O)N2CCN(C3CCCC3)CC2)cc1` was tested. Which “hERG current change (%, negative = inhibition) at 1uM” value did it give?
The value was 14.7%.

How did the “hERG current change (%, negative = inhibition) at 1uM” value turn out when `O=S(=O)(c1ccccc1)N1CCN(C(=S)Nc2ccccc2Cl)CC1` was run?
The value was 11.2%.

For `Cc1cc(C)cc(NC(=O)CCN2CCOCC2)c1`, which “hERG current change (%, negative = inhibition) at 1uM” value is on record?
Its value is 7.44%.

How did the “hERG current change (%, negative = inhibition) at 1uM” value turn out when `CCc1cccc(OCCCCNCCO)c1.O=C(O)C(=O)O` was run?
Its value is 14.5%.

`Cc1ccc(S(=O)(=O)N(CCC#N)C2CCCCC2)c2nsnc12` was tested. Which “hERG current change (%, negative = inhibition) at 1uM” value did it give?
Its value is 11.2%.

`O=S(=O)(/N=C(/Nc1cccc2ccccc12)c1ccc(F)cc1)c1ccccc1` was tested. Which “hERG current change (%, negative = inhibition) at 1uM” value did it give?
Its value is 7.06%.

`NNC(=O)Cn1c(SCc2ccccc2)nc2ccccc21` was tested. Which “hERG current change (%, negative = inhibition) at 1uM” value did it give?
Its value is 5.91%.

How did the “hERG current change (%, negative = inhibition) at 1uM” value turn out when `Cc1cccc(Nc2nc(-c3ccc(O)c(O)c3)cs2)n1` was run?
Its value is 12.7%.

With `COc1ccc2[nH]c3c(=O)n(CCCCC(=O)NCCN4CCCC4)c(=S)[nH]c3c2c1` as the molecule, how does the “hERG current change (%, negative = inhibition) at 1uM” value read?
Its value is 7.92%.

How did the “hERG current change (%, negative = inhibition) at 1uM” value turn out when `S=c1[nH]ncn1/N=C/c1cccc(Oc2ccccc2)c1` was run?
Its value is 10.7%.

Which “hERG current change (%, negative = inhibition) at 1uM” value does the source give for `COc1cc(NC(=O)CCc2nnc3ccc(N4CCN(C)CC4)nn23)cc(OC)c1` here?
The value was 30%.

For `Cc1c(C(=O)OCC2CCCO2)[nH]c2c1C(=O)CC(c1ccc(N(C)C)cc1)C2` (stereo not drawn), which “hERG current change (%, negative = inhibition) at 1uM” value is on record?
Its value is -2.54%.

How did the “hERG current change (%, negative = inhibition) at 1uM” value turn out when `O=C(CSc1nc(O)cc(=O)[nH]1)N1c2ccccc2Sc2ccccc21` was run?
Its value is 8.31%.

How did the “hERG current change (%, negative = inhibition) at 1uM” value turn out when `CN1CCN(C(=O)Nc2ccc3c(c2)N(C)C(=O)c2ccccc2S3)CC1` was run?
Its value is 7.91%.

How did the “hERG current change (%, negative = inhibition) at 1uM” value turn out when `Cc1ccc(SCC(=O)N2CCN(c3ccccn3)CC2)cc1` was run?
The value was 8.43%.

`O=C1CCCN1CCCNc1ncnc2c1[nH]c1ccc(Cl)cc12` was tested. Which “hERG current change (%, negative = inhibition) at 1uM” value did it give?
Its value is -18%.

With `CCOc1ncccc1C(=O)OCC(=O)Nc1cc(S(=O)(=O)N(CC)CC)ccc1C` as the molecule, how does the “hERG current change (%, negative = inhibition) at 1uM” value read?
The value was -10.5%.

With `O=C(O)CCC(=O)N1N=C(c2c(-c3ccccc3)c3cc(Cl)ccc3[nH]c2=O)CC1c1ccco1` (stereo not drawn) as the molecule, how does the “hERG current change (%, negative = inhibition) at 1uM” value read?
The value was 10.7%.

Which “hERG current change (%, negative = inhibition) at 1uM” value does the source give for `COc1cc(CNCCO)cc(Br)c1OCc1ccccc1Cl.Cl` here?
The value was 20.4%.

`COc1ccc(-c2nnc3ccc(SC(C(C)=O)C(C)=O)nn23)cc1OC` was tested. Which “hERG current change (%, negative = inhibition) at 1uM” value did it give?
Its value is 7.78%.

How did the “hERG current change (%, negative = inhibition) at 1uM” value turn out when `O=C1CS/C(=N/N=C\c2ccn[nH]2)N1` was run?
The value was 14.7%.

With `CC(=O)OC(C(=O)NCCN1CCOCC1)c1c(F)cccc1F` (stereo not drawn) as the molecule, how does the “hERG current change (%, negative = inhibition) at 1uM” value read?
Its value is 5.6%.

Which “hERG current change (%, negative = inhibition) at 1uM” value does the source give for `O=C(CC1COc2ccccc2O1)NCCc1ccccc1` (stereo not drawn) here?
The value was 2.54%.

`CCOc1ccccc1C(=O)NC(C(=O)N(C)Cc1ccc2c(c1)OCO2)C(C)C` (stereo not drawn) was tested. Which “hERG current change (%, negative = inhibition) at 1uM” value did it give?
Its value is 12%.

With `CCn1nnc(-c2ccccc2NC(=O)c2cccc(-n3cnnn3)c2)n1` as the molecule, how does the “hERG current change (%, negative = inhibition) at 1uM” value read?
The value was -8.88%.

Which “hERG current change (%, negative = inhibition) at 1uM” value does the source give for `CCc1nnc(SCC(=O)Nc2ccc(N3CCOCC3)cc2)o1` here?
The value was 3.16%.

`Cc1cccc(N2CCN(CC(O)COc3ccccc3Cl)CC2)c1` (stereo not drawn) was tested. Which “hERG current change (%, negative = inhibition) at 1uM” value did it give?
The value was -15%.

With `CC1(C)CC(=O)C=C(Nc2ccc([N+](=O)[O-])cc2)C1` as the molecule, how does the “hERG current change (%, negative = inhibition) at 1uM” value read?
Its value is 11.1%.

`COc1cccc(/C=C2\SC(=S)N(CCCC(=O)N3CCCC3)C2=O)c1` was tested. Which “hERG current change (%, negative = inhibition) at 1uM” value did it give?
The value was -2.58%.

With `S=c1[nH]nc(Cc2noc3ccccc23)n1-c1ccc(Cl)cc1` as the molecule, how does the “hERG current change (%, negative = inhibition) at 1uM” value read?
The value was 12.8%.

How did the “hERG current change (%, negative = inhibition) at 1uM” value turn out when `COc1ccccc1-c1coc2c(CN3CCN(C)CC3)c(O)ccc2c1=O` was run?
The value was 7.36%.
